# This is one part of the list. The main result of the screen is listed elsewhere. These columns were measured beside it and carry no call. The list favours compounds with an active or inconclusive main result.
# Test: beta-lactam sensitization of Mtb H37Rv, H37Rv (AID 434955);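 further: growth measured after seven days incubation then overnight dye step; 0% = bacteria only wells and 100% = bacteria with antibiotic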
# Details: M. tuberculosis H37Rv growth with meropenem, percent inhibition; measured here: primary screen without meropenem; at 25 µM
row,SMILES,inhibition [%]
1,CCOC(=O)c1[nH]c(C)c(C(=O)NCc2ccc(C)cc2)c1C,-9.59
2,Cc1ccccc1C(=O)Nc1ccnn1C1CCN(Cc2cnn(C)c2)CC1,-3.79
3,COc1ccc(CCn2c(SCC(=O)Nc3cc(C)on3)nc3ccccc3c2=O)cc1OC,9.33
4,COc1ccc(N2C(=O)NC(=O)/C(=C/c3ccc([N+](=O)[O-])s3)C2=O)cc1,100
5,CC(/C=N/NC(=O)c1cc(-c2ccncc2)nc2ccccc12)=C\c1ccco1,2.44
6,c1ccc(C2=Nn3c(nnc3-c3cccnc3)SC2)cc1,-0.67
7,O=C(Oc1oc(-c2ccco2)nc1C=Nc1ccc(Cl)cc1)c1ccco1,13.3
8,COc1ccccc1/C=N/NC(=S)Nc1cccnc1,32.2
9,CCC1CCCCN1C(=O)c1ccc(OC2CCN(C(=O)COC)CC2)cc1 (stereo unspecified),-0.39
10,O=C(O)c1ccc2c(c1)ncn2C1CCCCCC1,1.16
11,COc1ccc(Nc2nnc(SCc3cc(=O)n4ccsc4n3)s2)cc1,2.31
12,COc1cccc(NC(=O)N(C2CCCCC2)C(C)c2cccs2)c1 (stereo unspecified),-1.16
13,CC(C)c1cc(CNC(=O)C2CCC(=O)N(Cc3ccccc3F)C2)on1 (stereo unspecified),-0.4
14,O=C(NC(=S)Nc1ccc(Cl)c(C(=O)O)c1)c1cccc(COc2ccccc2)c1,52.2
15,COc1ccc(C(=O)N2CCCC(Nc3ccc(C)c(C)c3)C2)cc1F (stereo unspecified),13.6
16,O=C(CN1C(=O)c2cccnc2Oc2ccc(Cl)cc21)NC1CCCCCC1,6.18
17,O=S(=O)(Nc1cccc(-n2cnnn2)c1)c1ccc(Cl)nc1,1
18,CC1CCCN(C(=O)c2ccc3c(c2)OCO3)C1 (stereo unspecified),6.37
19,CCn1c(O)c(/C=N/NC(=O)c2ccccc2)c(=O)n(CC)c1=S,4.42

row,SMILES,inhibition [%]
1,CCn1cc(C(=O)O)c(=O)c2cc(F)c(N/N=C/c3ccccc3)cc21,28
2,COc1cc(/C=N/n2c(COc3ccccc3)n[nH]c2=S)cc(OC)c1OC(C)=O,4.77
3,O=C(CN(c1cc(C(F)(F)F)ccc1Cl)S(=O)(=O)c1ccccc1)NCc1cccnc1,-3.98
4,O=C(CN1CCOCC1)NCCNS(=O)(=O)c1ccccc1,-2.86
5,O=C(/C=C/c1ccccn1)c1cc(Br)ccc1O,11.9
6,Cc1noc(C)c1COc1cccc(C(=O)OC(C)C(=O)Nc2ccc3c(c2)OCO3)c1 (stereo unspecified),-0.96
7,O=C(CCN1C(=O)/C(=C/c2ccccc2Cl)SC1=S)Nc1ccccn1,95.9
8,O=C(c1cc(COc2ccccc2)on1)N1CCCC(OCc2cccnc2)C1 (stereo unspecified),4.22
9,CCOc1nc(-c2ccccc2)ccc1-c1noc(-c2ccco2)n1,12.4
10,COc1ccc(NC(=O)CSc2nccn2Cc2ccco2)cc1,-2.88
11,CC1=CC(C)(C)N(S(=O)(=O)c2ccc(F)cc2)c2ccccc21,-0.1
12,CSc1nnc2c(n1)OC(c1cccn1C)N(C(C)=O)c1ccccc1-2 (stereo unspecified),-5.01
13,CC(=O)Nc1ccc(S(=O)(=O)N2CCNC(=O)CC2)cc1,-1.88
14,Cc1cc(Nc2ccc(C(=O)O)cc2)n2nc(C)nc2n1,-2.73
15,COc1cc(C(=O)NCCC(=O)NCc2ccc3c(c2)OCO3)cc(OC)c1OC,-1.93
16,Cc1nc2c(-c3ccccc3)cnn2c(N2CCOCC2)c1C,5.69
17,COC(=O)c1ccc(C(=O)OC)c(NC(=O)c2cnc3n(c2=O)CCS3)c1,-0.37
18,COC(=O)CNc1c(-c2ccccc2)nc2ccc(Br)cn12,-7.8
19,O=C(O)c1cc(-c2ccccn2)n[nH]1,-10.9

row,SMILES,inhibition [%]
1,O=C(CSc1nnnn1-c1ccccc1)Nc1ncc2c(n1)CC(c1ccccc1)CC2=O (stereo unspecified),11
2,Cc1c(C(=O)OCCN2CCCCC2)oc2ccccc12,-1.07
3,Cc1nnc(SCc2cnc(-c3ccc(C(C)C)cc3)s2)n1C,1.23
4,CN(C)C(=O)c1ccc(-n2nc(C(F)(F)F)c3c2CCCC3)cc1,22.9
5,CN(Cc1ccccc1)C(=S)NC(=O)c1ccc(-c2ccccc2)cc1,26.7
6,CN1CCCC(OC(=O)c2ccc(C#N)cc2)C1 (stereo unspecified),-5.71
7,COc1ccc(C2(C)NC(=O)N(CC(=O)Nc3cccnc3Cl)C2=O)cc1 (stereo unspecified),8.35
8,COc1ccc(NC(=O)c2cc(C)nc3ccccc23)c(OC)c1,22
9,CN1CCc2c(sc(NC(=O)C3COc4ccccc4O3)c2C(N)=O)C1 (stereo unspecified),2.65
10,COc1ccc(C(=O)Nc2cccc(C(=O)O)c2)cc1S(=O)(=O)N1CCCC1,-18.2
11,Cc1ccc(S(=O)(=O)NC(=NCC(=O)O)c2ccc(F)cc2)cc1,2.94
12,O=C1c2cccnc2C(=O)N1c1ccccc1-c1ccccc1,24
13,CCN(CC)c1ccc(CN2CCCCCC2)cc1,27.1
14,Cc1cc(SCC(=O)N2CCC(c3noc4ccc(F)cc34)CC2)nc2ccccc12,-0.11
15,CCn1nc(C)cc1C(=O)N(C)C1CCCN(Cc2ccccc2F)C1 (stereo unspecified),2.33
16,COCCNC(=O)c1ccc(NC(=O)C2(c3ccccc3)CCCC2)cc1,40.9
17,COc1ccc(C(=O)CSc2nnc(-c3cnccn3)n2Cc2ccco2)cc1,4.29
18,CC1Cc2ccccc2N1C(=O)COc1cccc(-n2cnnn2)c1 (stereo unspecified),-2.19
